5 molecules from patent US20250270341A1 (Alector, published 2025) can be followed below.

The target of one assay is T1, huCD98hc ECD Avi-His (human, UniProt P08195 105-529).
T1 construct: biotinylated on the Avi tag where captured on streptavidin; also called Human CD98-AVI-His; Human CD98hc-AVI-His
T1 sequence: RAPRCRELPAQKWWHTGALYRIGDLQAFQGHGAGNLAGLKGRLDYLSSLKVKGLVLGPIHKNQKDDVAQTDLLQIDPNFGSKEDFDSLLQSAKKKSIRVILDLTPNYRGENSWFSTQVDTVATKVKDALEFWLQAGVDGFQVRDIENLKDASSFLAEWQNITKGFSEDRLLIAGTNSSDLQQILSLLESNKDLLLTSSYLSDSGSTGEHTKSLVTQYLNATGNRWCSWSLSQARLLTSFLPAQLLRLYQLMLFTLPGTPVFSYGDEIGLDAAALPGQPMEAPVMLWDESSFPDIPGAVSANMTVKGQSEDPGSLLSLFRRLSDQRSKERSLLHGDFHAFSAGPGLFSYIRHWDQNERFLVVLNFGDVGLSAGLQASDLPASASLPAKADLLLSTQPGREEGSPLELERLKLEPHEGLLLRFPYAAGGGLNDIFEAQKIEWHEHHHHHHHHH
Description: ELISA, 1 ug/ml. On the technique in general: ELISA stands for enzyme-linked immunosorbent assay.

A further assay deals with T2, Cyno CD98hc ECD Avi-His (cynomolgus macaque, UniProt P08195 105-529 (human entry)).
T2 construct: biotinylated on the Avi tag where captured on streptavidin; also called Cyno CD98-AVI-His; Cyno CD98hc-AVI-His
T2 chain: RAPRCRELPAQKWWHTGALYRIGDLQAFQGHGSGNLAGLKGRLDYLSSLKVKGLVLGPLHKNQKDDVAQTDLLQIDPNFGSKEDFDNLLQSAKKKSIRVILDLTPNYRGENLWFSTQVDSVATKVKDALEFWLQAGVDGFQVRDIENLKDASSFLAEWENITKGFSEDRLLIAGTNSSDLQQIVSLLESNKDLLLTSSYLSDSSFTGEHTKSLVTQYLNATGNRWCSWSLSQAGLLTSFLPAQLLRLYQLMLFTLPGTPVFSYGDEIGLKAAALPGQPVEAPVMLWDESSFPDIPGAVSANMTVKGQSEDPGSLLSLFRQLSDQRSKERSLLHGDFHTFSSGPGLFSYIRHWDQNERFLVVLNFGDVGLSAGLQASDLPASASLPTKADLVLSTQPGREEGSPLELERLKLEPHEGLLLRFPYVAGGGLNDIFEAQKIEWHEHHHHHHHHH
The assay is described as follows: ELISA, 1 ug/ml.

B1: CD98hc.03.002 (2+1 bispecific antibody) (bispecific antibody)
heavy 1: EVRLLESGGGLVQPGGSLRLSCAASGFTFSNYAMGWVRQAPGKGLEWVSAISGSGGSTYYADSVKGRFTTSRDDSKNALYLQMNSLRAEDTAVYYCARGGPGWYAADVWGQGTTVTVSSASTKGPSVFPLAPSSKSTSGGTAALGCLVKDYFPEPVTVSWNSGALTSGVHTFPAVLQSSGLYSLSSVVTVPSSSLGTQTYICNVNHKPSNTKVDKKV[here human IgG1 Fc with changes without letters]GGGGSGGGGSGGGGSDVQLVESGGGLVQPGGSRKLSCAASGFTFSTFGMHWVRQAPEKGLEWVAYISGGSTNIYYADTVKGRFTISRDNPKNTLFLQMTSLRSEDTAMYYCARETTLLATNFDYWGQGTTLTVSSGGSEGKSSGSGSESKSTGGSDIQMTQTTSSLSASLGDRVTISCRASQDISNYLNWYQQKPDGTVKLLIYYTSRLHSGVPSRFSGSGSGTDYSLTISNLEQEDIATYFCQQGSTLPRTFGGGTKLEIK
heavy 2: EVRLLESGGGLVQPGGSLRLSCAASGFTFSNYAMGWVRQAPGKGLEWVSAISGSGGSTYYADSVKGRFTTSRDDSKNALYLQMNSLRAEDTAVYYCARGGPGWYAADVWGQGTTVTVSS[here human IgG1 constant region with changes without letters]
light: DIQMTQSPSSLSASVGDRVTITCRASQSISSYLNWYQQKPGKAPKLLIYAASSLQSGVPSRFSGSGSGTDFTLTISSLQPEDFATYYCQQADLPAFAFGGGTKVEIKRTVAAPSVFIFPPSDEQLKSGTASVVCLLNNFYPREAKVQWKVDNALQSGNSQESVTEQDSKDSTYSLSSTLTLSKADYEKHKVYACEVTHQGLSSPVTKSFNRGEC
Turning to B1, the figures for the “ELISA fold-change relative to isotype hIgG” value with huCD98hc ECD Avi-His and with Cyno CD98hc ECD Avi-His were 25 and 24.1, respectively.

B2: CD98hc.03.004 (2+1 bispecific antibody) (bispecific antibody)
heavy 1: EVRLLESGGGLVQPGGSLRLSCAASGFTFSNYAMGWVRQAPGKGLEWVSAISGSGGSTYYADSVKGRFTTSRDDSKNALYLQMNSLRAEDTAVYYCARGGPGWYAADVWGQGTTVTVSSASTKGPSVFPLAPSSKSTSGGTAALGCLVKDYFPEPVTVSWNSGALTSGVHTFPAVLQSSGLYSLSSVVTVPSSSLGTQTYICNVNHKPSNTKVDKKV[here human IgG1 Fc with changes without letters]GGGGSGGGGSGGGGSDVQLQESGPGLVKPSQSLSLTCTVTGYSITNNYAWNWIRRFPGNKLEWMAYISYSGYTSYNPSLKSRISITRDTSKNQFFLQLNSVTTEDTATYYCTGYFYYYGGGSFDYWGQGTTLTVSSGGSEGKSSGSGSESKSTGGSQAVVTQESALTTSPGETVTLTCRSSTGAVTTSNFANWVQEKPDHLFTGLIRGSNNRAPGVPARFSGSLIGDKAALTITGARTEDEAIYFCALWYSDHWVFGGGTKLTVL
heavy 2: EVRLLESGGGLVQPGGSLRLSCAASGFTFSNYAMGWVRQAPGKGLEWVSAISGSGGSTYYADSVKGRFTTSRDDSKNALYLQMNSLRAEDTAVYYCARGGPGWYAADVWGQGTTVTVSS[here human IgG1 constant region with changes without letters]
light: DIQMTQSPSSLSASVGDRVTITCRASQSISSYLNWYQQKPGKAPKLLIYAASSLQSGVPSRFSGSGSGTDFTLTISSLQPEDFATYYCQQADLPAFAFGGGTKVEIKRTVAAPSVFIFPPSDEQLKSGTASVVCLLNNFYPREAKVQWKVDNALQSGNSQESVTEQDSKDSTYSLSSTLTLSKADYEKHKVYACEVTHQGLSSPVTKSFNRGEC
Turning to B2, the “ELISA fold-change relative to isotype hIgG” value in the assay with huCD98hc ECD Avi-His is 28.5; with Cyno CD98hc ECD Avi-His, 25.1.

B3: CD98hc.03.010 (2+1 bispecific antibody) (bispecific antibody)
heavy 1: EVRLLESGGGLVQPGGSLRLSCAASGFTFSNYAMGWVRQAPGKGLEWVSAISGSGGSTYYADSVKGRFTTSRDDSKNALYLQMNSLRAEDTAVYYCARGGPGWYAADVWGQGTTVTVSSASTKGPSVFPLAPSSKSTSGGTAALGCLVKDYFPEPVTVSWNSGALTSGVHTFPAVLQSSGLYSLSSVVTVPSSSLGTQTYICNVNHKPSNTKVDKKV[here human IgG1 Fc with changes without letters]GGGGSGGGGSGGGGSEVQLQQSGTELVKPGASVKLSCTASGLDIKDTYLHWVKQRPEQGLEWIGKIDPANGNTKYNPKFQGKATITADTSSNTAYLQLSSLTSEDTAVHYCTTPYYSGSSYGDYWGQGTTLTVSSGGSEGKSSGSGSESKSTGGSQIVLTQSPAIMSASPGEKVTLTCSASSSVSSSYLYWYQQKPGSSPKLWIYSTSNLASGVPARFSGSGSGTSYSLTISSMEAEDAASYFCHQWSRYPLTFGAGTKLELK
heavy 2: EVRLLESGGGLVQPGGSLRLSCAASGFTFSNYAMGWVRQAPGKGLEWVSAISGSGGSTYYADSVKGRFTTSRDDSKNALYLQMNSLRAEDTAVYYCARGGPGWYAADVWGQGTTVTVSS[here human IgG1 constant region with changes without letters]
light: DIQMTQSPSSLSASVGDRVTITCRASQSISSYLNWYQQKPGKAPKLLIYAASSLQSGVPSRFSGSGSGTDFTLTISSLQPEDFATYYCQQADLPAFAFGGGTKVEIKRTVAAPSVFIFPPSDEQLKSGTASVVCLLNNFYPREAKVQWKVDNALQSGNSQESVTEQDSKDSTYSLSSTLTLSKADYEKHKVYACEVTHQGLSSPVTKSFNRGEC
As for B3, the “ELISA fold-change relative to isotype hIgG” value in the assay with huCD98hc ECD Avi-His is 25.7; with Cyno CD98hc ECD Avi-His it was 21.2.

B4: CD98hc.03.031 (2+1 bispecific antibody) (bispecific antibody)
heavy 1: EVRLLESGGGLVQPGGSLRLSCAASGFTFSNYAMGWVRQAPGKGLEWVSAISGSGGSTYYADSVKGRFTTSRDDSKNALYLQMNSLRAEDTAVYYCARGGPGWYAADVWGQGTTVTVSSASTKGPSVFPLAPSSKSTSGGTAALGCLVKDYFPEPVTVSWNSGALTSGVHTFPAVLQSSGLYSLSSVVTVPSSSLGTQTYICNVNHKPSNTKVDKKV[here human IgG1 Fc with changes without letters]GGGGSGGGGSGGGGSQVQLQQSGAELVRPGVSVKISCKASGYTFTDYAMHWVKQSHAKSLEWIGVISTYYGDTTYNQKFKDKATMTVDKSSSTAYLELARLTSEDSAIYYCARVWLLSYAMDNWGQGTSVTVSSGGSEGKSSGSGSESKSTGGSDIVMTQSQRFMSTSVGDGVRITCKASQNVRTAVAWYQQKPGQSPKALINLAPNRHTGVPDRFTARGSGTDFTLTISNVQSEDLADYFCLQHWNYPLTFGAGTKLELK
heavy 2: EVRLLESGGGLVQPGGSLRLSCAASGFTFSNYAMGWVRQAPGKGLEWVSAISGSGGSTYYADSVKGRFTTSRDDSKNALYLQMNSLRAEDTAVYYCARGGPGWYAADVWGQGTTVTVSS[here human IgG1 constant region with changes without letters]
light: DIQMTQSPSSLSASVGDRVTITCRASQSISSYLNWYQQKPGKAPKLLIYAASSLQSGVPSRFSGSGSGTDFTLTISSLQPEDFATYYCQQADLPAFAFGGGTKVEIKRTVAAPSVFIFPPSDEQLKSGTASVVCLLNNFYPREAKVQWKVDNALQSGNSQESVTEQDSKDSTYSLSSTLTLSKADYEKHKVYACEVTHQGLSSPVTKSFNRGEC
Consider B4, for which the “ELISA fold-change relative to isotype hIgG” value amounted to 19.6 in the assay with huCD98hc ECD Avi-His and 18.5 with Cyno CD98hc ECD Avi-His.

B5: CD98hc.04.058 (2+1 bispecific antibody) (bispecific antibody)
heavy 1: EVRLLESGGGLVQPGGSLRLSCAASGFTFSNYAMGWVRQAPGKGLEWVSAISGSGGSTYYADSVKGRFTTSRDDSKNALYLQMNSLRAEDTAVYYCARGGPGWYAADVWGQGTTVTVSSASTKGPSVFPLAPSSKSTSGGTAALGCLVKDYFPEPVTVSWNSGALTSGVHTFPAVLQSSGLYSLSSVVTVPSSSLGTQTYICNVNHKPSNTKVDKKV[here human IgG1 Fc with changes without letters]GGGGSGGGGSGGGGSQVQLQQSGAELVRPGVSVKISCKASGYTFTDHTMHWVKQSHARSLEWIGVISTYFGDASYNPKFKGKATMTVDKSSNTAYMELARLTSEDSAIYYCARVGGRLRLGYYFDYWGQGTTLTVSSGGSEGKSSGSGSESKSTGGSNIMMTQSPSSLAVSAGEKVTMNCKSSQTVLYSSNQKNYLAWYQQKPGQSPKLLIYWASTRESGVPDRFTGSGSGTDFTLTISSVQVEDLAVYYCHQYLSSYTFGGGTKLEIK
heavy 2: EVRLLESGGGLVQPGGSLRLSCAASGFTFSNYAMGWVRQAPGKGLEWVSAISGSGGSTYYADSVKGRFTTSRDDSKNALYLQMNSLRAEDTAVYYCARGGPGWYAADVWGQGTTVTVSS[here human IgG1 constant region with changes without letters]
light: DIQMTQSPSSLSASVGDRVTITCRASQSISSYLNWYQQKPGKAPKLLIYAASSLQSGVPSRFSGSGSGTDFTLTISSLQPEDFATYYCQQADLPAFAFGGGTKVEIKRTVAAPSVFIFPPSDEQLKSGTASVVCLLNNFYPREAKVQWKVDNALQSGNSQESVTEQDSKDSTYSLSSTLTLSKADYEKHKVYACEVTHQGLSSPVTKSFNRGEC
As to B5, the “ELISA fold-change relative to isotype hIgG” value in the assay with huCD98hc ECD Avi-His was found to be 26.7.
